This note sets out measurements from PubChem BioAssay AID1508642 (National Center for Advancing Translational Sciences (NCATS), 2021).

Among all 43,000 compounds or so, about 200 (0.47%) were called active. About 12% were inconclusive and are not listed. Calls follow the shape of the dose curve; as a rule, active = well fitted cell-killing curve with a large enough effect; inconclusive = small, poorly fitted or top-dose-only effect, or effect the other way; inactive = flat fitted curve, though single readings scatter. The list shows a part of the results.
% is scaled to controls: 0 for no effect and ±100 for the full control effect.

This assay can be described thus: Cell viability qHTS assay in S16 Pmp22-F2sN cells. Also: nearly all actives have a fitted effect of over 65% in size. Particulars: S16 Pmp22-F2sN Schwann cells (luciferase reporters placed in the Pmp22 gene) viability, CellTiter-Glo, 24 h; series mostly up to 57.5 µM; activity change, negative = cytotoxicity: at the top concentration. The text has this: Assay Provider: Jim Inglese Ph.D. National Center for Advancing Translational Science, National Institutes of Health, Rockville, MD CMT is a heterogeneous group of neurological disorders that affect approximately 1 in 2,500 people. In particular, the most common form of CMT, CMT1A is genetically linked to the duplication of the PMP22 gene which leads to Schwann cell overexpression, thus manifesting itself as a typical case of dose-sensitive diseases. To identify small molecule compounds that can mediate the expression of PMP22 we developed a phenotypic assay screening strategy by utilizing genome editing techniques to construct Schwann cell lines containing novel reporter technology to monitor the transcriptional or translational regulation of PMP22. For high sensitivity we use a bioluminescent reporter system embedded in the 3' UTR of the PMP22 gene (S16(c9) Pmp22-F2sN) to identify compounds that inhibit gene expression. […] We can further discriminate the effect of all transcriptionally active molecules on PMP22 translation or stability with an assay that incorporates a short NLuc peptide (HiBiT) at the C-terminus of expressed PMP22 (S16(f8) PMP22-HiBiT) allowing alpha complementation and luminescence detection of membrane-associated PMP22 protein. These assays were screened against the NCATS Sytravon Library Collection. Miniaturization of these assays to 1536-well plate format for quantitative high throughput screening (qHTS) yielded rich data sets immediately from the qHTS assay (S16(c9) Pmp22-F2sN), when compared with data from a cell viability assay (Cell TiterGlo) to identify compounds that decreased the output signals through cellular toxicity to streamline the selection process of actives for subsequent characterization using the HiBiT assay (S16(f8) PMP22-HiBiT).
Cell viability assay in S16 Pmp22-F2sN cells PROTOCOL TABLE (format as described by Inglese J, Shamu CE and Guy RK. 2007) SEQUENCE No. (e.g., 1, 2, 3, etc.); […] (e.g., Cells, Incubation, Reagent, etc.); VALUE and DESCRIPTION. 1. Cells. Add 500-1,000 cells in 4 uL in growth media (DMEM High Glucose, No Phenol Red media + 10% heat-inactivated FBS + 1% Pen/Strep supplemented media) per well into Greiner 1536-well white/solid bottom high base, TC-treated plates. 2. Compounds. Library compounds and controls added at 23nL per well, transferred by Pin Tool. 3. Incubation. Incubate plates at 37C, 5% CO2, 95% RH for 24 h. 4. Reagent. Add 3uL CellTiter-Glo per well of Greiner 1536-well plates. 5. Incubation. Incubate plates at room temperature for 15 min., protect from light. 6. Detector. FLuc luminescence measured using CCD-based camera (Viewlux). NOTES (numbers refer to Sequence numbers above; values are from representative experiments) 6. Luminescence Read: Clear filter; Exposure = 1 sec, Gain = High, Speed = Slow, Binning = 2X REFERENCES: 1. Inglese J, Shamu CE and Guy RK, Reporting data from high throughput screening of small molecule libraries, Nature Chemical Biology, 2007, 3(8): 438-441. doi.org/10.1038/nchembio0807-438 2. Yasgar A, Shinn P, Jadhav A, Auld DS, Michael S, Zheng W, Austin CP, Inglese J and Simeonov A, Compound Management for Quantitative High-Throughput Screening. J. Assoc. Lab. Auto., 2008, 13: 79-89. doi: 10.1016/j.jala.2007.12.004
A general note: Quantitative high-throughput screening tests each substance at several concentrations.
Regarding `CCc1ccc(C2c3c(oc4ccc(F)cc4c3=O)C(=O)N2c2nc(C)c(C(=O)OC)s2)cc1` (stereo not drawn), the “activity change, negative = cytotoxicity” value is inactive: -5.37%. `COc1cc(NC(=O)CSc2nc3nc(C)c(Cc4ccc(C)cc4)c(C)n3n2)cc(OC)c1OC`: the “activity change, negative = cytotoxicity” value was inactive: -5.62%. Regarding `O=C(Nc1ccc(F)cc1F)c1ccc2c(O)c(S(=O)(=O)c3ccc(Cl)cc3)c(=O)[nH]c2c1`, the “activity change, negative = cytotoxicity” value was inactive: 5.05%. As for `CCOc1ccc(NC(=O)CN2C(=O)COc3ccc(S(=O)(=O)NC4CCCC4)cc32)cc1`, the figure is inactive: -6.31%. As for `COC(=O)c1sccc1S(=O)(=O)N(CC(=O)Nc1c(C)cccc1C)c1ccc(C)c(C)c1`, the “activity change, negative = cytotoxicity” value was inactive: -11.8%.

On to `COc1ccc2c(c1)c(=O)c(S(=O)(=O)c1ccc(C)cc1)cn2Cc1ccccc1C`, for which the “activity change, negative = cytotoxicity” value is inactive: 5.6%. Take `CCOC(=O)N1CCc2c(sc3c2c(=O)n(Cc2ccccc2)c(=O)n3CC(=O)Nc2ccc(C)c(C)c2)C1`: the “activity change, negative = cytotoxicity” value is inactive: 11.2%. As for `CCC(C(=O)Nc1cc(F)ccc1F)n1nc(-c2cc(C)ccc2C)ccc1=O` (stereo not drawn), the figure is inactive: 10.9%; as for `COC(=O)C(C)n1nnc2sc(-c3ccccc3)cc2c1=O` (stereo not drawn), inactive: -0.965%. As for `Cc1ccc(NC(=O)CCC(=O)N2CCSc3ccccc32)cc1Cl`, the figure is inactive: -3.44%; as for `COc1ccc(Br)cc1C(=O)Nc1ccc(-c2nc3cc(Cl)ccc3o2)cc1`, inactive: 1.05%. As to `Cc1c(NC(=O)c2cccc3c(Cl)cccc23)cccc1-c1nc2ccccc2o1`, the “activity change, negative = cytotoxicity” value is inactive: 4.41%. For the compound `O=C(CCS(=O)(=O)c1cc(Br)cc2c1N(C(=O)C1CC1)CC2)NCc1ccccc1Cl`, the “activity change, negative = cytotoxicity” value was inactive: 2.42%.

`CC1=C(C(=O)NCc2ccccc2C)C2(CCCCC2)OC1=O`: the “activity change, negative = cytotoxicity” value was inactive: 14.7%. On to `Cc1c(NC(=O)C(C)(C)Oc2ccc(Cl)cc2)cccc1-c1nc2ncccc2o1`, for which the “activity change, negative = cytotoxicity” value was inactive: -0.702%. Next, `CC(=O)c1ccc(NC(=O)Cn2cc(S(=O)(=O)Cc3ccccc3Cl)c3ccccc32)cc1`: inactive: 4.72%; `Cc1c(Cl)cccc1NC(=O)Nc1nnc(N(C)Cc2ccccc2)s1`: inactive: -3.06%. Regarding `Cc1ccc(NC(=O)c2c(C)oc3nc(C)nc(N4CCCC4)c23)c(C)c1`, the “activity change, negative = cytotoxicity” value is inactive: 5.31%.

Regarding `CC(Sc1cn(CCNC(=O)c2ccccc2F)c2ccccc12)c1ccccc1` (stereo not drawn), the “activity change, negative = cytotoxicity” value is inactive: -6.62%. Consider `CCC(C(=O)Nc1ccccc1OC)n1nc(C)c2sc3ccccc3c2c1=O` (stereo not drawn), for which the “activity change, negative = cytotoxicity” value is inactive: -7.22%. As for `Cc1ccc(C)c(OCC(=O)Nc2ccc(S(=O)(=O)Nc3onc(C)c3C)cc2)c1C`, the “activity change, negative = cytotoxicity” value was inactive: -2.26%. As for `O=S(=O)(c1ccc(F)cc1)N(Cc1nc(-c2ccc(Cl)cc2)no1)C1CCCCC1`, the figure is inactive: -1.04%; as for `COc1ccc(C)cc1NC(=O)Cn1c(=O)ccc2cc(S(=O)(=O)N3CCC(C)CC3)ccc21`, inactive: -19.9%. Turning to `CCOc1ccc(CCNC(=O)c2ccc(CS(=O)Cc3cccc(Cl)c3)o2)cc1` (stereo not drawn), the “activity change, negative = cytotoxicity” value is inactive: -2.12%. Take `COC(=O)c1ccc(NC(=O)CSc2ncc3c(n2)-c2cc(Cl)ccc2N(Cc2ccccc2)S3(=O)=O)cc1`: the “activity change, negative = cytotoxicity” value was inactive: -27.9%. Turning to `Cc1ccc2c(=O)c(C(=O)c3ccc(Cl)cc3)cn(CC(=O)NC3CCCCC3)c2n1`, the “activity change, negative = cytotoxicity” value was inactive: -1.4%.

Turning to `CSc1ccc(CCNC(=O)CN2C(=O)c3cccnc3Oc3ccc(Cl)cc32)cc1`, the “activity change, negative = cytotoxicity” value was inactive: 1.74%. Regarding `O=C(CSc1nc(-c2cccs2)nc2cc(=O)[nH]n12)Nc1ccccc1F`, the “activity change, negative = cytotoxicity” value is inactive: -1.25%.

As to `CCOc1ccc(CCNC(=O)CSc2cc(=O)n(C)c3cc(Cl)ccc23)cc1OCC`, the “activity change, negative = cytotoxicity” value is inactive: -12.2%.

`CCCCn1c(NCc2cc(Cl)ccc2O)nc2ccccc21`: the “activity change, negative = cytotoxicity” value was inactive: 22.8%. For `CCCC1=Nc2cc(C(=O)NCCc3ccccc3)ccc2Sc2ccc(C)cc21`, the “activity change, negative = cytotoxicity” value is inactive: -2.45%. With `COc1ccccc1NC(=O)NCc1cccn1Cc1ccccc1`, the “activity change, negative = cytotoxicity” value was inactive: 18.5%. Next, `Cc1cc(Br)ccc1NC(=O)c1ccc(NS(=O)(=O)c2c(C)noc2C)cc1`: inactive: 14.8%; `COc1ccc(NC(=O)Cn2cnc3ccc(S(=O)(=O)N4CCC(C)CC4)cc3c2=O)cc1OC`: inactive: 7.3%; `COc1cccc(-c2nc(SCC(=O)NC3CCCC3)c(-c3ccccc3)[nH]2)c1`: inactive: -0.153%. As to `CCOc1ccc(-c2nc(SCC(=O)NC3CCCC3)c(-c3ccccc3)[nH]2)cc1OC`, the “activity change, negative = cytotoxicity” value was inactive: 1.43%. As for `COc1ccc(-c2cnn3c(C)cc(C)nc23)cc1OC`, the figure is inactive: -17.9%. `COc1ccccc1CNC(=O)CCC1N=C2c3ccccc3N=C(SCc3ccc(C)cc3)N2C1=O` (stereo not drawn): the “activity change, negative = cytotoxicity” value was inactive: -21.6%. With `COC(=O)c1c(NC(=O)Nc2ccc(Cl)cc2)sc(C)c1C`, the “activity change, negative = cytotoxicity” value is inactive: -5.13%. Consider `CC(=O)c1cc(-c2ccccc2)n(CCC(=O)Nc2ccc(C)cc2C)c1C`, for which the “activity change, negative = cytotoxicity” value is inactive: 5.2%. Turning to `COc1ccc(N2CC(NC(=O)c3cc4ccccc4o3)CC2=O)cc1` (stereo not drawn), the “activity change, negative = cytotoxicity” value was inactive: -0.134%. Turning to `Cc1ccc2c(c1)N(C(=O)Nc1cccc(C)c1C)CCO2`, the “activity change, negative = cytotoxicity” value was inactive: -1.48%. With `CS(=O)(=O)N1CCc2cc(C(=O)N3CCN(c4ccccc4)CC3)ccc21`, the “activity change, negative = cytotoxicity” value was inactive: -5.67%. As for `CCCc1nnc(NC(=O)c2cc(=O)c3cc(Cl)ccc3o2)s1`, the “activity change, negative = cytotoxicity” value was inactive: 3.53%.

On to `COc1ccc(CCC(=O)NCCc2csc(-c3ccc(C(F)(F)F)cc3)n2)cc1`, for which the “activity change, negative = cytotoxicity” value was inactive: -2.5%. For the compound `COc1cccc(N2CCN(c3ncnc4onc(-c5ccc(F)cc5)c34)CC2)c1`, the “activity change, negative = cytotoxicity” value was inactive: -1.63%. In the case of `CCOC(=O)c1cc(S(=O)(=O)N2CCN(c3ccc(C)cc3C)CC2)[nH]n1`, the “activity change, negative = cytotoxicity” value was inactive: 10.7%. Take `Cc1ccc(C)c(NC(=O)CSC2=Nc3ccccc3N=C(c3ccc(F)cc3)C2)c1`: the “activity change, negative = cytotoxicity” value was inactive: -2.61%.
